# Assay results published in PubChem BioAssay AID504333 (National Center for Advancing Translational Sciences (NCATS), 2011).
# Among all 360,000 compounds or so, about 16,000 (4.4%) were called active. Inconclusive means that the source gave no clear call. Such entries were picked first, then a sample of the others. The call rests on the fitted dose curve; in most records, active means well fitted inhibition curve with a large enough effect; inconclusive means small, poorly fitted or top-dose-only effect; inactive means no such curve, though single readings can be large or run the other way. Potencies of inconclusive entries are doubtful fits and often do not repeat.
# Biological target: Bromodomain adjacent to zinc finger domain protein 2B (Homo sapiens) (UniProt Q9UIF8)
# Assay: qHTS Assay for Inhibitors of BAZ2B; further: nearly all actives have a fitted effect of over 60% in size
# Settings: AlphaScreen BAZ2B-H3K14Ac peptide displacement; series mostly up to 114 µM
# Summary of the method: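 Compounds, titrated to a top concentration of 110 uM, were incubated 30 min at room temperature with preformed BAZ2B/acetyl-K14 H3 peptide complex (50 nM each). Proximity signal was measured by AlphaScreen after 20 min with beads.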
# Potency means the concentration at half of the fitted maximal effect; tags describe the fitted curve by direction and shape.
# Chain of UniProt Q9UIF8 (Q9UIF8 whole entry, looked up, the tested form may be a part): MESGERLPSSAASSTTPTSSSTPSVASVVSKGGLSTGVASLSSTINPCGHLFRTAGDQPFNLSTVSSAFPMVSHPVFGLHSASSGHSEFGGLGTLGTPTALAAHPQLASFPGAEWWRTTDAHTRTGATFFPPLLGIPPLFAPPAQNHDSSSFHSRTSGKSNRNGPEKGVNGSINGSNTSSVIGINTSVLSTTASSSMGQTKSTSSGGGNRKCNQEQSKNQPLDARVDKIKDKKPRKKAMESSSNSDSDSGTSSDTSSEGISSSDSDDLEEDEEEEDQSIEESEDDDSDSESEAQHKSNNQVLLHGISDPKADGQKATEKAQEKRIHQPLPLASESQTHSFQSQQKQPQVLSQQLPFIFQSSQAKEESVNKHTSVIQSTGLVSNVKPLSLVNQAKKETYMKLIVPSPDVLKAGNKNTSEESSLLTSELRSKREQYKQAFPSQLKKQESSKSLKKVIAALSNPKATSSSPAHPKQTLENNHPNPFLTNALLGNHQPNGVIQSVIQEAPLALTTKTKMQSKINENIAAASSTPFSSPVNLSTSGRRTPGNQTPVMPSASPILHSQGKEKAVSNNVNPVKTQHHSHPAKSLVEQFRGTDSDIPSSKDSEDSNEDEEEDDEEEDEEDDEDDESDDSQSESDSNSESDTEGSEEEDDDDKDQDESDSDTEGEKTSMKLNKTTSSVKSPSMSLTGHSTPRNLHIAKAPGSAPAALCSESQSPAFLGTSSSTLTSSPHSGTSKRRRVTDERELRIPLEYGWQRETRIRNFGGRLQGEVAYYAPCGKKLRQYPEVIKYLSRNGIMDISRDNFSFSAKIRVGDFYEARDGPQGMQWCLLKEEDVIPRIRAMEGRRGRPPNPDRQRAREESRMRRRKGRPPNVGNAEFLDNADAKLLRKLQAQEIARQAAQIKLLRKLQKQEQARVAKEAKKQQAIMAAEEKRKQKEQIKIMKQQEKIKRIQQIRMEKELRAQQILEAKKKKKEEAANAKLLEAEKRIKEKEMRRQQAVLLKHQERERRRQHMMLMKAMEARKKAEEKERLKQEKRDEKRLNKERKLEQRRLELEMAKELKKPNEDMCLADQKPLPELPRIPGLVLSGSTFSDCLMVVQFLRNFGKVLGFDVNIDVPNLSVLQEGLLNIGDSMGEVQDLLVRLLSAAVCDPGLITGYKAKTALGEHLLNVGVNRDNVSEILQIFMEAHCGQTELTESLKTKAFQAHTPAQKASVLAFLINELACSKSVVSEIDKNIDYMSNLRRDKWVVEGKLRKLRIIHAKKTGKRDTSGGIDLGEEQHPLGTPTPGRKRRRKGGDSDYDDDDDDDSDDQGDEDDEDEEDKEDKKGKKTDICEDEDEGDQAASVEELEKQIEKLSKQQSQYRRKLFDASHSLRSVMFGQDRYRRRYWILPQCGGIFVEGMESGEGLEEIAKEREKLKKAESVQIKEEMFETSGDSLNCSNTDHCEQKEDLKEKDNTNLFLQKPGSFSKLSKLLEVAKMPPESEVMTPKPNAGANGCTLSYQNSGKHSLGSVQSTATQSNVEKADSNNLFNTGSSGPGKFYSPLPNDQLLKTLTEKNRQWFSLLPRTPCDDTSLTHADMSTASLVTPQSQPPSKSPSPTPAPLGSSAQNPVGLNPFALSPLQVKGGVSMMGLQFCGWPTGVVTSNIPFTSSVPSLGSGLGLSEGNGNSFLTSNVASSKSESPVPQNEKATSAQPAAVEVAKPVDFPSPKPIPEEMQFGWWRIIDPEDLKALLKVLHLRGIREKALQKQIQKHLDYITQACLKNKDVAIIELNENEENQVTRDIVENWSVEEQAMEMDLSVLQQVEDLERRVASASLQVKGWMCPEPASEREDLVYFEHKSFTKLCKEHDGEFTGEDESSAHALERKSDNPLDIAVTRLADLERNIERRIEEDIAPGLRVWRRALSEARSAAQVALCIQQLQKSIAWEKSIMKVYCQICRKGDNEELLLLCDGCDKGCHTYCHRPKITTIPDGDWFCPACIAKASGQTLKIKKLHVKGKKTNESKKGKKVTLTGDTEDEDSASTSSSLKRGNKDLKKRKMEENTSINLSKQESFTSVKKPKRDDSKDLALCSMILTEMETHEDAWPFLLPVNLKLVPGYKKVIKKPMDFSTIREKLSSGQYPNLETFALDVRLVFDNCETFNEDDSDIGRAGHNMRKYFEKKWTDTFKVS
row,Structure (SMILES),Potency
1,Cc1ccc2nc(Cl)c3cc(C(=O)NC4CCCCC4)sc3c2c1,inactive
2,N#Cc1c(SCC(N)=O)nsc1SCc1ccc(Cl)cc1,inactive
3,CCN(CC)CCCNC(=O)/C(=C\c1cccn1C)NC(=O)c1cccs1,"inconclusive: 56.2 µM [inhibitor, partial curve, poor fit]"
4,COc1ccc(OC)c(NC(=O)C(NS(=O)(=O)c2ccc3c(c2)CCCC(=O)N3)C(C)C)c1 (configuration not stated),inactive
5,COc1ccc2c(c1)C(=C(C#N)C#N)C(=O)N2CCc1ccccc1,"inconclusive: 44.7 µM [inhibitor, partial curve]"
6,Cc1ccc(-c2c(C(=O)N/N=C/C3CCCCC3)nnn2-c2nonc2N)cc1,active: 79.4 µM
7,CCCc1nnc(NC(=O)CN2CCN(C)CC2)s1,active: 79.4 µM
8,COC(=O)c1cc(O)cc(OC)c1Oc1cc(C)cc(O)c1C(=O)O,active: 8.91 µM
9,CC(Sc1nnnn1C1CC1)C(=O)N1CC(=O)Nc2ccccc21 (configuration not stated),inactive
10,CC(C)NC(=S)N/N=C/c1cc(Br)ccc1O,active: 17.8 µM
11,O=C(O)COc1cnc2ccccc2n1,"inconclusive: 56.2 µM [inhibitor, partial curve]"
12,Cc1ccc(/C=C/C(=O)Nc2ccc(N(C)C)cc2)o1,active: 35.5 µM
13,CN(C)c1ccc(NC(=O)Cc2ccccc2)c2ccccc12,"inconclusive: 89.1 µM [inhibitor, single point]"
14,CCN1CCN(c2ccc(S(=O)(=O)N3CCCCC3)cc2NC(=O)COc2ccc(F)cc2Cl)CC1,"inconclusive: 50.1 µM [inhibitor, partial curve]"
15,O=C(c1cn(-c2ccccc2)nc1-c1ccccc1)N1CCN(c2ccccn2)CC1,"inconclusive: 79.4 µM [inhibitor, single point]"
16,CCOc1cc(C(=S)N2CCC(O)CC2)ccc1OS(=O)(=O)c1ccc(Br)cc1,"inconclusive: 89.1 µM [inhibitor, single point]"
17,CCC(C)(C)NC(=O)C1CCN(c2nc(C)cc(C)n2)CC1,"inconclusive: 89.1 µM [inhibitor, single point]"
18,CCOc1ccc(/C=N/Nc2nc(C)cs2)c(O)c1,"inconclusive: 89.1 µM [inhibitor, single point]"
19,O=C(Nc1nc(-c2ccccn2)cs1)c1cccc(S(=O)(=O)N2CCOCC2)c1,active: 28.2 µM
20,COC(=O)c1cc2c(C)cc3ccc(C)cn3c-2c1C(=O)OC,"inconclusive: 3.55 µM [inhibitor, full curve, poor fit]"
21,COc1ccccc1OCCC(=O)OCC(=O)c1[nH]c(C)c(C(C)=O)c1C,"inconclusive: 79.4 µM [inhibitor, single point]"
22,CC(C)=CCC/C(C)=C/Cc1c(O)ccc(C(=O)/C=C/c2ccc(O)cc2)c1O,"inconclusive: 50.1 µM [inhibitor, partial curve]"
23,CCn1c(/C(C#N)=N/O)nc2ccccc21,"inconclusive: 44.7 µM [inhibitor, partial curve]"
24,CCOc1ccc(/C=C2\SC(=S)NC2=O)cc1OC,"inconclusive: 17.8 µM [inhibitor, full curve]"

row,Structure (SMILES),Potency
1,CC(Cc1cccnc1)NC(=O)c1cc(COc2ccc(F)cc2F)on1 (configuration not stated),"inconclusive: 8.91 µM [inhibitor, full curve, poor fit]"
2,CCN1CCN(C(c2cccnc2)c2cc(Cl)c3cccnc3c2O)CC1 (configuration not stated),active: 11.2 µM
3,Cc1ccc(S(=O)(=O)c2nnn3c2nc(N2CCCCC2)c2sccc23)cc1,inactive
4,CC(=O)c1sc(NC(=O)C2CC(=O)N(Cc3ccco3)C2)nc1-c1ccccc1 (configuration not stated),"inconclusive: 70.8 µM [inhibitor, single point]"
5,CC(=O)Nc1sc(C)c(C)c1CN1CCN(S(=O)(=O)c2ccccc2)CC1,"inconclusive: 89.1 µM [inhibitor, single point]"
6,COc1cccc(-n2c(=O)c3sccc3n(Cc3cc(=O)n4cc(Cl)ccc4n3)c2=O)c1,inactive
7,CCOc1ccc(Nc2ccc(S(=O)(=O)N3CCN(C)CC3)cc2[N+](=O)[O-])cc1OCC,"inconclusive: 15.8 µM [inhibitor, full curve]"
8,O=C1OC/C(=C(/O)c2ccc(Cl)cc2)C1=O,inactive
9,COc1cccc(C(=O)NCC(c2ccco2)N2CCc3ccccc3C2)c1 (configuration not stated),"inconclusive: 100 µM [inhibitor, single point]"
10,NC(=O)c1ccsc1NC(=O)c1ccc(S(=O)(=O)N2CCCc3ccccc32)cc1,"inconclusive: 70.8 µM [inhibitor, single point]"
11,CC(=O)Nc1sc(C)c(C)c1C(=O)OCC(=O)N(Cc1ccccc1)C(C)C,inactive
12,Cc1ccc(C(=O)NNC(=O)CSc2n[nH]c(-c3cccnc3)n2)cc1,"inconclusive: 79.4 µM [inhibitor, partial curve]"
13,O=C(NC(Cc1c[nH]c2ccccc12)C(=O)O)c1ccc(Br)cc1 (configuration not stated),"inconclusive: 89.1 µM [inhibitor, single point]"
14,COC(=O)c1[nH]c2c(c1C)C(=O)CC(c1ccc(OC)c(OC)c1)C2 (configuration not stated),inactive
15,CCc1ccc(NC(=O)COc2ccc3c(c2)OCO3)cc1,"inconclusive: 79.4 µM [inhibitor, partial curve]"
16,O=C1c2ccccc2C(=O)C1(c1ccccc1)N1CCN(c2cccc(C(F)(F)F)c2)CC1,"inconclusive: 7.08 µM [inhibitor, full curve]"
17,Cc1ccc(NC(=O)N2CCC(CN3CCCCCC3)CC2)c(Cl)c1,inactive
18,CC(C)c1ccc(N2C(=O)CSC23C(=O)N(Cc2ccccc2F)c2ccccc23)cc1 (configuration not stated),inactive
19,CCOc1ccc(S(=O)(=O)N2CCCCC2)cc1NC(=O)CN1C(=O)NC(C)(c2ccc(C)cc2)C1=O (configuration not stated),"inconclusive: 79.4 µM [inhibitor, single point]"
20,CN(Cc1ccccc1)c1ccc(N2C(=O)CCCC2=O)cc1[N+](=O)[O-],"inconclusive: 70.8 µM [inhibitor, single point]"
21,CC(C)(O)C#Cc1ccc(C(=O)N2CCCC2C(=O)O)s1 (configuration not stated),inactive
22,Cc1ccccc1C(=O)Oc1ccc2ccc(O)cc2c1,"inconclusive: 79.4 µM [inhibitor, partial curve]"
23,CN(/N=C/c1cc(Cl)cc(Cl)c1O)c1c(Cl)cccc1[N+](=O)[O-],active: 10 µM
24,COc1ccc(N/N=C(\C#N)C(=O)NCCc2ccc(OC)c(OC)c2)cc1,"inconclusive: 79.4 µM [inhibitor, single point]"

row,Structure (SMILES),Potency
1,COc1ccc(N2CCN(CCCNC(=O)CCC(=O)N3CCOc4ccc(Cl)cc43)CC2)cc1,active: 31.6 µM
2,Cc1cc(C)cc(S(=O)(=O)c2cnc3ccccc3n2)c1,inactive
3,CCN(CC(=O)Nc1c(C(=O)OC)[nH]c2ccccc12)c1ccc2c(c1)OCO2,"inconclusive: 11.2 µM [inhibitor, partial curve]"
4,Cc1ccc(/C=N/NC(=O)Cc2c[nH]c3ccccc23)c(C)c1,"inconclusive: 79.4 µM [inhibitor, single point]"
5,CCOc1ccc2c(O)csc2c1,inactive
6,Nc1n[nH]c(=S)n1-c1ccc(Cl)cc1,"inconclusive: 89.1 µM [inhibitor, single point]"
7,Cc1c(C)n(Cc2ccc(F)cc2)c2ccc(C(=O)NCCCN3CCOCC3)cc12,active: 28.2 µM
8,CCCOc1ccc(/C(O)=C2/C(=O)C(=O)N(CCCN3CCOCC3)C2c2ccncc2)cc1 (configuration not stated),"inconclusive: 89.1 µM [inhibitor, single point]"
9,CC(C#N)N1CCN(S(=O)(=O)c2ccc3c(c2)CCC3)CC1 (configuration not stated),inactive
10,CCOc1ccccc1NC(=O)C(=O)N/N=C/c1cc(Br)ccc1O,active: 8.91 µM
11,NNC(=O)Cn1c(-c2ccccn2)nc2ccccc21,inactive
12,O=C(c1cccs1)n1cc(C(=S)N2CCOCC2)c2ccccc21,"inconclusive: 31.6 µM [inhibitor, partial curve]"
13,COc1ccc(NC(=S)NC(=O)c2ccccc2)cn1,"inconclusive: 79.4 µM [inhibitor, single point]"
14,C=CCN1C(=O)NC(c2ccc(OC)cc2)(C(F)(F)F)S/C1=C(\C#N)c1nnc(N2CCOCC2)n1-c1ccccc1 (configuration not stated),inactive
15,COC(=O)c1cc(OC)c(OC)cc1NC(=S)Nc1cc(Cl)ccc1OC,inactive
16,COc1ccccc1NC(=O)c1cc([N+](=O)[O-])ccc1NCCN1C(=O)CCC1=O,"inconclusive: 25.1 µM [inhibitor, full curve]"
17,CC(C)[C@H](NC(=O)[C@@H]1Cc2ccccc2CN1)C(=O)Nc1ccc2c(c1)OCO2,"inconclusive: 28.2 µM [inhibitor, full curve]"
18,Nc1c(NCc2ccccc2)c(=O)[nH]c(=O)n1Cc1ccccc1,inactive
19,C=CCOc1ccccc1/C=c1\sc2nc(=O)c(C)nn2c1=O,"inconclusive: 89.1 µM [inhibitor, single point]"
20,Cc1cc(-c2ccccc2N)n[nH]1,"inconclusive: 89.1 µM [inhibitor, single point]"
21,COc1ccccc1CNC(=O)CCCN1C(=O)CCn2nc(-c3cn(C)c4ccccc34)cc21,"inconclusive: 79.4 µM [inhibitor, partial curve]"
22,Cc1cc(C(=O)CSc2nnc3c(Cl)cc(Cl)cn23)c(C)n1C,"inconclusive: 100 µM [inhibitor, single point]"
23,CN(C)c1ccc(/C=N/NC(=S)NCc2ccccc2)cc1,"inconclusive: 7.94 µM [inhibitor, partial curve]"
24,COC(=O)C(NC(=O)c1ccccc1Cl)(Nc1ncc(S(=O)(=O)c2ccc([N+](=O)[O-])cc2)s1)C(F)(F)F (configuration not stated),"inconclusive: 79.4 µM [inhibitor, single point]"
